# Results: the supplement of paper PMC11417369
# ± gives the standard deviation of the averaged measurements. The list shows a part of the results.
# Test system: PfAP2-G AP2 domain (GST-tagged)
# Test: gcPBM binding intensity (ln(normalized median fluorescence intensity)); higher = stronger DNA binding
# Method in brief: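 After 1 h on an Agilent 4 × 180k array of primer-extended double-stranded 36-bp intergenic genomic probes and negative controls, bound GST-tagged P. falciparum DNA-binding domains were detected with Alexa488 anti-GST antibody and scanned at 488 nm. The domains had been expressed in E. coli, and binding took place in 1× PBS with 1% milk, 0.2 mg/ml BSA, 0.5% salmon testes DNA and 0.03% Triton X-100. Binding intensity is the highest Masliner-normalised natural-log median intensity across replicate spots of either probe orientation.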
row,Sequence,gcPBM binding intensity (ln)
1,AAATACATATATACATGTACATAAATATATATATAT [XGTACX_site5367],11.2 ± 0.66
2,ATAGATATACATATCACACATATATATATATATATA [CACACA_site4985],10.2 ± 0.58
3,AATATATATGGACATGCATGGACATAATAATCTATT [TGCATGCA_site838],10.9 ± 0.53
4,GAAAATAATGTTACATGTACGAATATGTAACTATTG [XGTACX_site6833],10.8 ± 0.46
5,TGAGAAAGCGCATATTGTACTATATATTTTAACCAC [XGTACX_site4098],11 ± 0.58
6,AATCCATTCTATTTTTTACACACGTATGTAAATATT [CACACA_site8860],10.2 ± 0.11
7,GAAACGTTTTTGAGTAGTACACACACAATAAGGATG [XGTACX_site6809],11.7 ± 1.1
8,ATATAAATATAAACATGTACATATATATATATATAT [XGTACX_site2824],11.1 ± 0.69
9,ATATATTTATACATTTGTACATATACATATTTCTGA [XGTACX_site3982],10.9 ± 0.27
10,ATTTTTTTTGTAAAAGTGCATATATATATATATATA,10.2 ± 0.32
11,AAAATTGTGCTTTCACGGACACAAGATCGAAATAGA [XGTACX_site4068],11 ± 0.73
12,TTTGTAATAACATATGCATGTTCAAAAAATAAAATA [TGCATGCA_site817],9.9 ± 0.16
13,ATTTTTTTATAAAATTTTTTATATATTAAATATTAT [CACACA_negctrl_site135],9.58 ± 0.085
14,ACGTTTTATTTTTATTGTACTCACATTGAAATGAAT [XGTACX_site6094],11.4 ± 0.98
15,AAATTTATATAAAACAGTACAATTAAAAAAAAAATA [XGTACX_site8015],10.7 ± 0.47
16,TTTTTAAATAACCTATATATTATTATGAAACATAAA [CACACA_negctrl_site916],9.705 ± 0.078
17,GTATAATATATTTATAGTACATAATTATTTATAAAT [XGTACX_site1826],11 ± 0.63
18,TATATATATATATTCACACATAAAAATAAAATAAAA [CACACA_site4774],9.98 ± 0.29
19,ATGTAACACATATTTGGTACAGATAGATAAAAGTAT [XGTACX_site8291],10.8 ± 0.33
20,TTTTCTTAATATTTATGTATATATATAATATGATAT [TGCATGCA_negctrl_site572],9.74 ± 0.042
21,TAATAAATCCTATATAGTACATATATGCAAGTATGT [XGTACX_site3955],11 ± 0.47
22,ATATATATATATGTGTGTACTTATTTATTTATTTGT [XGTACX_site549],11.5 ± 1

row,Sequence,gcPBM binding intensity (ln)
1,TATAACATATTTATATATGACATTATCTATTCATTT [CACACA_negctrl_site864],9.51 ± 0.17
2,ACATTAATATAAAGCACACATATATATAATATATAT [CACACA_site508],10 ± 0.13
3,ATTGATTTTTAATATACACACATAAGTACCACAAAA [CACACA_site339],11.4 ± 0.84
4,AAAAATATAAACTGCACACACAAAAAAAAAAGAGAA [CACACA_site1367],10.1 ± 0.2
5,CAATATTATTATATTTGTACACATGCGTATTTTTTA [XGTACX_site4154],11.3 ± 0.54
6,ATATTATGTGATTGTGCACACTGGAGATTTTTTTTA [CACACA_site1453],10.6 ± 0.3
7,CCCGTAAATACAAAAAGTACAAAAGTTCATCTTATA [XGTACX_site1154],11.2 ± 0.68
8,TTAATATTGTATCCAAGTACACAAATTATTATATTT [XGTACX_site8067],11.4 ± 1
9,CATGATATATAAATATGTACATATATATATATATAT [XGTACX_site1760],11.2 ± 0.69
10,TAATAATAATATAAAATACACACCTATTATTTTTAC [CACACA_site4003],9.72 ± 0.22
11,CCTAATTTTTTTAGTTGTACTTTTTTTTTTTTTTAT [XGTACX_site7948],11.6 ± 0.79
12,CAAATTATTTCGAGGTGTACTTTTTTATATTATATT [XGTACX_site8309],11.5 ± 0.89
13,GCCTATATGTTTAGTTGTACTCCTAATATTATTTGT [XGTACX_site6060],11.7 ± 1.1
14,TTTATAAATTGACACACACACATGTGAACATAAAAA [CACACA_site6978],10.5 ± 0.2
15,AATGTGTTCATATATGCACACGCATATATATTATTG [CACACA_site9274],10.16 ± 0.085
16,TATATAAATGGACACACACACACCTTATAATTATTA [CACACA_site6093],10.9 ± 0.53
17,TAACTTAAATAATACATACACACATGTACATACAGA [CACACA_site1594],11 ± 0.42
18,TATAATTTTTTTTGGGTGCTTGGGTAAATTTTATTA,10.4 ± 0.2
19,AAAAAAAAAAAAAATAGTACGTAACTATAATTTCCT [XGTACX_site2457],11.2 ± 0.56
20,AAATTATAAGTAAAAAGTACTTAATATATAATAAAC [XGTACX_site6065],11.1 ± 0.63
21,CTTATACTTCTACATCGTACAAAAGATGGTATAATT [XGTACX_site2698],10.8 ± 0.43
22,AATTATATATTATCATGTACAAATATAGTAATACAA [XGTACX_site6845],10.7 ± 0.4

row,Sequence,gcPBM binding intensity (ln)
1,ATAAAAAAAAAAAAAAATGAAGCATCACCGTGTAAT [XGTACX_negctrl_site288],9.47 ± 0.14
2,ATACGTATATAATATACATGCATATATAGCACATAC [TGCATGCA_site376],10 ± 0.014
3,AAAAAAAAAAAAAAAAAAAAAGGACGGATGGATGGA [GTGCAC_negctrl_site527],11.1 ± 0.53
4,TCTCATTTCAACAACAGTACATATCTATCTGTGTAT [XGTACX_site6897],10.6 ± 0.32
5,GAAAGAGAAATATATACACACATATTTATATTTTTA [CACACA_site2066],9.835 ± 0.049
6,CACGAAAAAAAAAAATGTACATAAAAATATGATACA [XGTACX_site2536],11.2 ± 0.68
7,ATATATATATATATATGTACATATATCTACATATAT [XGTACX_site7588],11.3 ± 0.64
8,ACTTTTTAATATTTTAGTACACAGTAATTCTTACTA [XGTACX_site1425],11.4 ± 0.89
9,ATTTTTATTTTCTTTACACACCACATAACTTTTTTT [CACACA_site7826],10.3 ± 0.36
10,TATATTAAAAAAAAATGTACATATATATAATATATA [XGTACX_site1935],11.2 ± 0.7
11,TTTAATATGAATTTATGTACATATATATATATATAT [XGTACX_site6337],11.2 ± 0.78
12,CATTTTTTGCTTTCAACACACATACAATATAAATAA [CACACA_site7858],10.4 ± 0.3
13,TTATTTATTTAGTAGTGTACTTTTTATATTTATAAT [XGTACX_site5978],11.6 ± 0.99
14,AAAAAGTGATTAAAATGTACAAAATGCATAAAAGAA [XGTACX_site6625],10.6 ± 0.2
15,AAAGTAAAAAAAAAAACATGCATACGCTAATTTTTA [TGCATGCA_site301],9.65 ± 0.17
16,GATATGTTAAATATATGTACATATATAAACCCAAAC [XGTACX_site6601],11.2 ± 0.65
17,ATTTTAATACTTTTATATTAAATGTAGCACATCATA [XGTACX_negctrl_site273],10.2 ± 0.31
18,TATAATAATATTATAGTGCATATTATTTATATATAA [GTGCAC_site9820],9.895 ± 0.092
19,AAAAAAAAAAAATACACACACATATATATATATATA [CACACA_site2224],9.9 ± 0.52
20,TATGTAATAAATAGTACACACACACCGATATATATA [CACACA_site8389],11.3 ± 0.92
21,ACATATTATAACATATGTACATATATATATATATAA [XGTACX_site5567],11.2 ± 0.71
22,AAATATAAGTTTTATTGTACATTATATAGCATATTT [XGTACX_site6618],10.7 ± 0.43

row,Sequence,gcPBM binding intensity (ln)
1,TTTTGACATTAACTTAAAAAATAAATAATTATAAAA [XGTACX_negctrl_site552],9.65 ± 0.085
2,TTAATAAAAATATATCCACACACATATATATATATG [CACACA_site8091],10.2 ± 0.23
3,ATCATTTATTTTTTAAAAGTATATATATATATATAT [CACACA_negctrl_site220],10.1 ± 0.38
4,TTTTTTTTTTTTTAAATAATCATACATGTGAAATTG [GTGCAC_negctrl_site328],9.84 ± 0.31
5,AAAAAATAAGATTGTACACACATAAATTCTTTGTCA [CACACA_site2089],11.3 ± 0.93
6,CGTTCTATTTAGATATGTACTTAAATATATGATCAT [XGTACX_site2936],11.1 ± 0.76
7,TATCATATAAAACATGCACACATATGTACTCTTATA [CACACA_site9249],11.3 ± 1
8,AATATTATTATCTTACCACACACAATCTACGAAAAG [CACACA_site8006],10.1 ± 0.14
9,TTAAAGAATATTTTCACACATAAAAATTTTAATTTA [CACACA_site4290],9.66 ± 0.099
10,TTATAAAACACAAAATGTACAAAAAATTATAATTAA [XGTACX_site6859],10.7 ± 0.33
11,TATATATATATAAGTGCACACTGAACCAAGAAAATT [CACACA_site5637],10.8 ± 0.45
12,TATGTCTTGTTGTAAAATATTTATTAACAAATTGGC [CACACA_negctrl_site1452],9.98 ± 0.21
13,TATTTTTCCATATGCACACACACCGTATATATAATA [CACACA_site1127],10.3 ± 0.11
14,CATATACACCAACACACACACACACCCACAAAAAAA [CACACA_site496],10.5 ± 0.53
15,AAATAAATAATTTAATGTACATATATAATATATATA [XGTACX_site1831],11 ± 0.57
16,ATAACAAAATAAAACACACACACAAATGTACATATA [CACACA_site2425],11.3 ± 0.76
17,CACTTTATACGTAATTGTACTTTTTCTTTTTTTTAT [XGTACX_site3175],11.5 ± 0.86
18,ACTTACTAATTAATGGGTACATACACACATATATAC [XGTACX_site1362],11.3 ± 0.84
19,TATTCAAAGAAAGACAGTACGTGTAGCAAACAACCT [XGTACX_site4218],11 ± 0.63
20,TAAATAAAGTATAATGCATGCTATTATAATATTAAT [TGCATGCA_site825],9.76 ± 0.014
21,CTTTTTAATAAATATACACACACAAAAAAAAAAAAA [CACACA_site9316],10.1 ± 0.52
22,ATGATATATAGACACACACACATATTTATATACATT [CACACA_site6404],10
